# Test results as given in the supplement of paper PMC9446081.
# About 220 (0.56%) of roughly 39,000 compounds showed activity. This is one part of the list.
# Tested on: Escherichia coli K-12 BW25113
# Test: relative growth (OD600 normalised to plate interquartile mean) (fraction); higher = less growth inhibition, active = 0.2 or less
# Settings: 50 µM; LB; incubation time: overnight (16-24 h)
# 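Further: static incubation at 37 °C against the wild-type strain, values averaged over two biological replicates.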
row,SMILES,relative growth
1,C[C@H](CO)N1C[C@H](C)[C@H](CN(C)S(=O)(=O)c2cccs2)OCCCC[C@H](C)Oc2ccc(NC(=O)Nc3cccc4ccccc34)cc2C1=O,inactive: 1.04
2,CC(C)NC(=O)N[C@@H]1C=C[C@H](CC(=O)NCCN2CCCC2)O[C@@H]1CO,inactive: 0.924
3,CCCNC(=O)N(C)C[C@@H]1Oc2cc(-c3ccc(C)cc3)ccc2S(=O)(=O)N([C@@H](C)CO)C[C@H]1C,inactive: 1.02
4,CC(C)=CCOc1cc2oc(=O)ccc2cc1O,inactive: 1.05
5,C[C@@H]1CCCCO[C@H](CN(C)Cc2ccccc2)[C@@H](C)CN([C@@H](C)CO)C(=O)c2cc(NS(=O)(=O)c3ccc(Cl)cc3)ccc2O1,inactive: 0.981
6,C[C@H](CO)N1C[C@H](C)[C@H](CN(C)Cc2ccc(Cl)c(Cl)c2)Oc2c(NC(=O)Nc3ccccc3)cccc2C1=O,inactive: 0.99
7,C[C@@H]1CCCCO[C@@H](CN(C)C(=O)Nc2ccccc2)[C@H](C)CN([C@H](C)CO)C(=O)c2cc(NC(=O)Nc3ccc(F)cc3)ccc2O1,inactive: 1.03
8,O=C(C[C@H]1CC[C@@H]2[C@H](COC[C@H](O)CN2S(=O)(=O)c2cccc(F)c2)O1)NCCCN1CCOCC1,inactive: 0.992
9,COc1ccc2c3c([nH]c2c1)[C@@H](CO)N(Cc1ccc(cc1)Cl)C[C@]13CCN(CCc2ccccc2)CC1,inactive: 0.765
10,CC(C)NC(=O)N(C)C[C@H]1OCCCC[C@H](C)Oc2ccc(NS(=O)(=O)c3cn(C)cn3)cc2C(=O)N([C@@H](C)CO)C[C@@H]1C,inactive: 0.97
11,COc1ccc(NC(=O)N(C)C[C@H]2Oc3ccc(NC(=O)Cn4cnnn4)cc3CC(=O)N([C@H](C)CO)C[C@@H]2C)cc1,inactive: 1
12,O=C(O)CSCC(=O)NC1CCSC1=O (centres undefined),inactive: 1.13
13,C[C@@H]1CN([C@H](C)CO)C(=O)Cc2cc(NC(=O)Cc3cn(C)c4ccccc34)ccc2O[C@H]1CN(C)Cc1ccc(Cl)c(Cl)c1,inactive: 1.05
14,C[C@@H]1CN([C@H](C)CO)C(=O)c2cc(NC(=O)CCN3CCOCC3)ccc2O[C@@H]1CN(C)S(=O)(=O)c1cn(C)cn1,inactive: 1.04
15,C[C@@H]1CN([C@@H](C)CO)S(=O)(=O)c2ccc(C#Cc3ccncc3)cc2O[C@@H]1CN(C)C(=O)C1CCOCC1,inactive: 1.02
16,C[C@@H]1CCCCO[C@@H](CN(C)C(=O)NC2CCCCC2)[C@H](C)CN([C@H](C)CO)C(=O)c2cc(NC(=O)Nc3ccc(F)cc3)ccc2O1,inactive: 1.01
17,C[C@@H]1CCCCO[C@@H](CN(C)C(=O)Cc2ccccc2)[C@@H](C)CN([C@@H](C)CO)C(=O)c2cc(NC(=O)C3CCCCC3)ccc2O1,inactive: 1
18,NC(=O)CN1C(=O)C(=O)c2cc(Cl)ccc21,inactive: 0.935
19,CO[C@@H](CN(C)S(=O)(=O)c1ccc(F)cc1)[C@@H](C)CN([C@@H](C)CO)S(=O)(=O)c1cccc(Cl)c1,inactive: 1.03
20,O=C(C[C@H]1CC[C@H](NS(=O)(=O)c2ccc(F)cc2)[C@H](CO)O1)NCc1ccc(Cl)c(Cl)c1,inactive: 1.02

row,SMILES,relative growth
1,CCN([NH2+][O-])c1ccc(O)c(O)c1,inactive: 1.01
2,C[C@H]1CN([C@@H](C)CO)C(=O)Cc2cc(NC(=O)Nc3ccc4c(c3)OCO4)ccc2O[C@H]1CN(C)C(=O)Nc1cccc2ccccc12,inactive: 1.03
3,C[C@@H]1CN([C@H](C)CO)C(=O)c2cccc(NC(=O)Nc3ccccc3)c2O[C@H]1CN(C)Cc1ccc(Oc2ccccc2)cc1,inactive: 0.923
4,C[C@@H]1CCCCO[C@H](CN(C)C(=O)c2ccccc2)[C@@H](C)CN([C@H](C)CO)C(=O)c2cc(NS(=O)(=O)c3ccc(F)cc3)ccc2O1,inactive: 0.965
5,O=C(C[C@H]1CC[C@@H]2[C@H](COC[C@@H](O)CN2C(=O)c2ccncc2)O1)NCc1ccc(-c2ccccc2)cc1,inactive: 1.01
6,CC(C)C#Cc1ccc2c(c1)O[C@@H](CN(C)C(=O)Cc1ccccn1)[C@@H](C)CN([C@@H](C)CO)S2(=O)=O,inactive: 0.966
7,COC(=O)[C@@H]1[C@@H](CO)[C@@H]2Cn3c(ccc(-c4cncnc4)c3=O)[C@@H]2N1C(=O)C1CCC1,inactive: 1
8,Cc1cc(C(=O)Nc2cccc3c2O[C@H](CN(C)C(=O)Nc2ccc4c(c2)OCO4)[C@@H](C)CN([C@@H](C)CO)C3=O)n(C)n1,inactive: 1.02
9,COc1ccc(NC(=O)N(C)C[C@@H]2OCCCC[C@@H](C)Oc3ccc(NS(=O)(=O)c4c(C)noc4C)cc3C(=O)N([C@H](C)CO)C[C@H]2C)cc1,inactive: 1
10,C[C@@H]1CN([C@H](C)CO)C(=O)c2cc(-c3ccncc3)cnc2O[C@H]1CN(C)S(=O)(=O)c1ccc(F)cc1,inactive: 0.97
11,COCCNC(=O)C[C@H]1CC[C@H]2[C@H](COc3ccc(NC(=O)Nc4cccc(F)c4)cc3C(=O)N2C)O1,inactive: 0.858
12,C[C@@H]1CN([C@H](C)CO)C(=O)c2cccc(NS(=O)(=O)c3ccc(Cl)cc3)c2O[C@H]1CN(C)Cc1ccc(C(F)(F)F)cc1,inactive: 1.01
13,C[C@@H]1CN([C@H](C)CO)C(=O)Cc2cc(NC(=O)C3CCCCC3)ccc2O[C@@H]1CN(C)C(=O)Nc1cccc2ccccc12,inactive: 0.998
14,O=S(=O)(NCC[C@H]1CC[C@H](NS(=O)(=O)c2cccc(Cl)c2)[C@H](CO)O1)c1cccc(F)c1,inactive: 1
15,CC(C)NC(=O)Nc1ccc2c(c1)CC(=O)N([C@@H](C)CO)C[C@H](C)[C@@H](CN(C)Cc1ccc(Oc3ccccc3)cc1)O2,inactive: 1.01
16,CC(C)NCC(O)c1ccc2ccccc2c1.Cl (centres undefined),inactive: 0.864
17,C[C@H]1CN([C@@H](C)CO)C(=O)Cc2cc(NS(=O)(=O)c3ccc(Cl)cc3)ccc2O[C@@H]1CN(C)C(=O)Nc1cccc2ccccc12,inactive: 1
18,O=C(O[C@@H]1O[C@H]2COC(=O)c3cc(O)c(O)c(O)c3-c3c(cc(O)c(O)c3O)C(=O)O[C@@H]([C@H]1O)[C@@H]2O)c1cc(O)c(O)c(O)c1,inactive: 0.69
19,C[C@@H](O)/C=C\c1cc[n+](C)cc1,inactive: 1
20,C[C@H](CO)N1C[C@H](C)[C@@H](CN(C)C(=O)NC2CCCCC2)OCCCC[C@H](C)Oc2ccc(NC(=O)NC3CCCCC3)cc2C1=O,inactive: 1.03

row,SMILES,relative growth
1,CC(=O)O[C@@H](C)C[N+](C)(C)C,inactive: 1.02
2,Cc1ccc(S(=O)(=O)Nc2ccc3c(c2)C(=O)N([C@@H](C)CO)C[C@@H](C)[C@H](CN(C)Cc2ccncc2)OCCCC[C@H](C)O3)cc1,inactive: 1.01
3,C[C@H]1CCCCO[C@H](CN(C)C(=O)Nc2ccc(C(F)(F)F)cc2)[C@@H](C)CN([C@@H](C)CO)C(=O)c2cc(NC(=O)Nc3cccc4ccccc34)ccc2O1,inactive: 1.02
4,C[C@H](CO)N1C[C@H](C)[C@H](CN(C)S(C)(=O)=O)Oc2ccc(NS(=O)(=O)c3ccc(Cl)cc3)cc2C1=O,inactive: 1.03
5,C[C@H](CO)N1C[C@H](C)[C@H](CN(C)S(=O)(=O)c2cccs2)OCCCC[C@H](C)Oc2ccc(NC(=O)Nc3ccc(C(F)(F)F)cc3)cc2C1=O,inactive: 1.02
6,C[C@H](CO)N1C[C@H](C)[C@@H](CN(C)C(=O)Nc2ccc(C(F)(F)F)cc2)Oc2c(NC(=O)NC3CCCCC3)cccc2C1=O,inactive: 0.852
7,OC[C@H]1O[C@@H](n2cnc3c(N[C@H]4CCC[C@@H]4O)ncnc32)[C@H](O)[C@@H]1O,inactive: 1.03
8,CC(C)CC#Cc1cnc2c(c1)C(=O)N([C@@H](C)CO)C[C@@H](C)[C@@H](CN(C)S(=O)(=O)c1cccs1)O2,inactive: 0.986
9,C[C@H]1CN([C@@H](C)CO)C(=O)c2cc(NC(=O)Nc3ccc4c(c3)OCO4)ccc2O[C@H]1CN(C)Cc1ccc(Cl)c(Cl)c1,inactive: 1.01
10,C[C@@H]1CCCCO[C@H](CN(C)S(=O)(=O)c2ccc(F)cc2)[C@@H](C)CN([C@H](C)CO)C(=O)c2cc(NC(=O)C3CCCCC3)ccc2O1,inactive: 1.02
11,Cc1ccc(S(=O)(=O)Nc2ccc3c(c2)C(=O)N([C@@H](C)CO)C[C@@H](C)[C@@H](CN(C)S(=O)(=O)c2ccc(Cl)cc2)OCCCC[C@H](C)O3)cc1,inactive: 1.01
12,COc1ccc(CNC(=O)C[C@H]2CC[C@H]3[C@@H](COc4ccc(NC(=O)C(C)C)cc4C(=O)N3C)O2)cc1,inactive: 0.993
13,COc1ccc(NC(=O)N(C)C[C@@H]2OCCCC[C@@H](C)Oc3ccc(NC(=O)CCC(F)(F)F)cc3C(=O)N([C@H](C)CO)C[C@H]2C)cc1,inactive: 0.986
14,CCOC(=O)CNC(=O)c1cc(C)on1,inactive: 1.02
15,C[C@@H]1CN([C@H](C)CO)C(=O)c2cc(NC(=O)c3ccncc3)ccc2O[C@@H](C)CCCCO[C@@H]1CN(C)Cc1ccc(C(F)(F)F)cc1,inactive: 1.01
16,C[C@H](CO)N1C[C@H](C)[C@@H](CN(C)C(=O)Nc2ccc(C(F)(F)F)cc2)OCCCC[C@H](C)Oc2ccc(NS(=O)(=O)c3cccs3)cc2C1=O,inactive: 0.993
17,Cc1noc(C)c1NC(=O)N(C)C[C@@H]1OCCCC[C@H](C)Oc2ccc(NC(=O)c3ccccc3)cc2C(=O)N([C@H](C)CO)C[C@H]1C,inactive: 1.01
18,C[C@@H]1CN([C@@H](C)CO)C(=O)c2cccc(NC(=O)c3ccc(-c4nccs4)cc3)c2O[C@@H]1CN(C)C(=O)Nc1ccccc1,inactive: 0.999
19,O=C1CO[C@H]2CN(c3ccccn3)C[C@@H]2N1,inactive: 1.02
